Like-named read-outs stand apart in the source and are kept apart here. These are yes or no findings as the source states them, for the method shown. Binding seen in cells or lysates may run through a third protein. Some entries that bind do so weakly or less than the wild type. For part of these data: Where a sequence is shown, tags or fusion partners need not be part of it.
Experiments:
[1] = target: human TLR5 (human (endogenous in THP-1)) (UniProt O60602); test: co-IP; 30 ug purified His-tagged flagellin added to THP-1 lysate (or lysis buffer as control); anti-hTLR5 mAb 19D759.2 at 4 C for 16 h; agarose beads 1 h at room temperature; 5 washes with 1x PBS, 0.02% Tween 20, pH 7.5; flagellin detected with anti-His antibodies; only the binder purified
[2] = target: human TLR5 (human (endogenous in THP-1)) (UniProt O60602); test: as above; remark: listed apart in the source

Protein sequences, listed by entry. Tags and fused reporters are not part of them. Residues count along the entry.
UniProt O60602, residues 21-858: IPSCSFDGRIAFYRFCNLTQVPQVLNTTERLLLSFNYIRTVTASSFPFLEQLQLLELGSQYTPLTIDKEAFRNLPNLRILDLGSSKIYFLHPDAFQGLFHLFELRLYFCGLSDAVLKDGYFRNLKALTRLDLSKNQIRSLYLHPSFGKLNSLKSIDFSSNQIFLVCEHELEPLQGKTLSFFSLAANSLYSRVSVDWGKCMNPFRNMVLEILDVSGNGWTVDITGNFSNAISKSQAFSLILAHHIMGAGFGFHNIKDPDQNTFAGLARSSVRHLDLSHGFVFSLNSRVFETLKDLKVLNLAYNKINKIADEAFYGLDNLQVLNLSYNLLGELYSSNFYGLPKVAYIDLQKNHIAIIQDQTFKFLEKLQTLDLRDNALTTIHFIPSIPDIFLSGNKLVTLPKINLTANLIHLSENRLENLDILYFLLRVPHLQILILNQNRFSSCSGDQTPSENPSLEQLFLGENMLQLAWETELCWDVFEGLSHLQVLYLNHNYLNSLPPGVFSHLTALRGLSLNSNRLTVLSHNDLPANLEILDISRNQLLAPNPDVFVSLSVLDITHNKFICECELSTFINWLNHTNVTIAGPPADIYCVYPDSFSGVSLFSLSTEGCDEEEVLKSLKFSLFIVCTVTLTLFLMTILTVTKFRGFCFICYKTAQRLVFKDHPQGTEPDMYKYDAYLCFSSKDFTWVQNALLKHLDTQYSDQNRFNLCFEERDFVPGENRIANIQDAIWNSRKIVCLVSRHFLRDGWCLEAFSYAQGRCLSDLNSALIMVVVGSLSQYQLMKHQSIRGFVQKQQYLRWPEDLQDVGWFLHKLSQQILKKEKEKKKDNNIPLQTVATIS

In the case of “TpFlaB1 △C0 (1-242) (from UniProt P21990 1-242) (domain or fragment)”, the binding [1] is reported as “binds”.

For “TpFlaB3 △N0C0 (52-242) (from UniProt P21992 52-242) (domain or fragment)”, the binding [1] was “binds”.

“TpFlaB2 △C0 (1-242) (from UniProt P21991 1-242) (domain or fragment)” was tested, and the binding [1] was “binds”.

For “TpFlaB1 C (202-286) (from UniProt P21990 202-286) (domain or fragment)”, the binding [1] was “no binding (tested: 30 μg of each protein)”.

With “TpFlaB2 △N0 (52-286) (from UniProt P21991 52-286) (domain or fragment)” the binding [1] was “binds”.

“TpFlaB3 △C0 (1-242) (from UniProt P21992 1-242) (domain or fragment)” was tested, and the binding [1] was “binds”.

For “TpFlaB3 △N0 (52-286) (from UniProt P21992 52-285) (domain or fragment)”, the binding [1] was “binds”.

For “TpFlaB2 △N0C0 (52-242) (from UniProt P21991 52-242) (domain or fragment)”, the binding [1] was “binds”.

With “TpFlaB2 △C (1-201) (from UniProt P21991 1-201) (domain or fragment)” the binding [1] was “binds”.

In the case of “TpFlaB3 C (202-286) (from UniProt P21992 202-285) (domain or fragment)”, the binding [1] is reported as “no binding (tested: 30 μg of each protein)”.

For “TpFlaB2 C (202-286) (from UniProt P21991 202-286) (domain or fragment)”, the binding [1] was “no binding (tested: 30 μg of each protein)”.

With “TpFlaB1 △N (139-286) (from UniProt P21990 139-286) (domain or fragment)” the binding [1] was “no binding (tested: 30 μg of each protein)”.

“TpFlaB1 △C (1-201) (from UniProt P21990 1-201) (domain or fragment)” was tested, and the binding [1] was “binds”.

With “TpFlaB3 △C (1-201) (from UniProt P21992 1-201) (domain or fragment)” the binding [1] was “binds”.

With “TpFlaB1 △N0C0 (52-242) (from UniProt P21990 52-242) (domain or fragment)” the binding [1] was “binds”.

In the case of “TpFlaB3 △N (139-286) (from UniProt P21992 139-285) (domain or fragment)”, the binding [1] is reported as “no binding (tested: 30 μg of each protein)”.

With “TpFlaB1 △N0 (52-286) (from UniProt P21990 52-286) (domain or fragment)” the binding [1] was “binds”.

In the case of “TpFlaB2 △N (139-286) (from UniProt P21991 139-286) (domain or fragment)”, the binding [1] is reported as “no binding (tested: 30 μg of each protein)”.

B1: Treponema pallidum flagellin FlaB1, full-length recombinant (protein, UniProt P21990 1-286)
chain: MIINHNMSAMFAQRTLGHTNVQVGKGIEKLSSGYRINRAGDDASGLAVSEKMRSQIRGLNQASTNASNGVNFIQVTEAYLQETTDIMQRIRELAIQAANGIYSAEDRMQIQVEVSQLVAEVDRIASSAQFNGMNLLTGRFSRTEGENVIGGSMWFHIGANMDQRMRVYIGTMTAVALGVRNGVDESIMSIETADSANKSIGTIDAALKRINKQRADLGGYQNRMEYTVVGLDIAAENLQAAESRIRDANIAKQMVEYTKNQVLTQSGTAMLAQANTSAQSILSILR
For B1, the binding [2] was “binds”.

B2: Treponema pallidum flagellin FlaB2, full-length recombinant (protein, UniProt P21991 1-286)
chain: MIINHNMSAMFSQRTLGHTNLSVQKNIEKLSSGLRINRSGDDASGLAVSEKMRSQIRGLNQASTNAQNGISFIQVAEAFLQETTDVIQRIRELSVQAANGIYSAEDRLYIQVEVSQLVAEVDRIASHAQFNGMNMLTGRFARQGGENTVTASMWFHIGANMDQRTRAYIGTMTAVAMGIRDAGDESVMNIDSPEKANRAIGTLDQAIKRINKQRADLGAYQNRLDHTVAGINVAAENLQAAESRIRDVDMAKEMVDYTKNQILVQSGTAMLAQANQATQSVLSLLR
In the case of B2, the binding [2] is reported as “binds”.

B3: Treponema pallidum flagellin FlaB3, full-length recombinant (protein, UniProt P21992 1-285)
chain: MIINHNMSAMFAQRQGGINGLAIAKNIEKLSSGYRINRAGDDASGLAVSEKMRSQIRGLNQAGQNIQNGISFIQATEGYLAETTEIVQRLRELAIQAANGIYSAEDRMQIQVEVSQLVDEVDRIASQAQFNGMNLLTGRFSRESALGPMQLHVGANMDQNEKIFINTMTASALGFFSDEGTDGSRSISIATVDGANKVIGTLDSALKEINKQRADLGAYQNRFETAYQGIAIAAENLQAAESRIRDADLAQQMVDYTKNQILEQSTMAMLAQANTQPQAVLRLMQ
With B3 the binding [2] was “binds”.

From paper PMC6815820
